According to PubChem BioAssay AID488896 (Broad Institute, 2010):
The whole screen tested about 320,000 compounds, of which about 3,100 (0.97%) were called active. Inconclusive results, whose numbers are uncertain, are shown with a selection of clear calls.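 The calls were made as follows: active = mean replicate inhibition of at least 70% and a set share of replicates each scoring 70 or more; inconclusive = meets just one of the two criteria; inactive = fails both criteria.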

Each compound was assayed against Scavenger receptor class B member 1 (Mus musculus) (UniProt Q61009) (assay: inhibitors of SR-BI mediated HDL lipid uptake, primary screen, ldlA[mSR-BI] cells, fluorescence, single point (AID 488896;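 also: 0% = median of neutral control wells and 100% = median of positive control wells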)). Details: ldlA[mSR-BI] CHO cells, DiI-HDL uptake fluorescence, 3 h; at 12.5 µM; active compounds read high.
Chain of UniProt Q61009 (Q61009 whole entry, looked up): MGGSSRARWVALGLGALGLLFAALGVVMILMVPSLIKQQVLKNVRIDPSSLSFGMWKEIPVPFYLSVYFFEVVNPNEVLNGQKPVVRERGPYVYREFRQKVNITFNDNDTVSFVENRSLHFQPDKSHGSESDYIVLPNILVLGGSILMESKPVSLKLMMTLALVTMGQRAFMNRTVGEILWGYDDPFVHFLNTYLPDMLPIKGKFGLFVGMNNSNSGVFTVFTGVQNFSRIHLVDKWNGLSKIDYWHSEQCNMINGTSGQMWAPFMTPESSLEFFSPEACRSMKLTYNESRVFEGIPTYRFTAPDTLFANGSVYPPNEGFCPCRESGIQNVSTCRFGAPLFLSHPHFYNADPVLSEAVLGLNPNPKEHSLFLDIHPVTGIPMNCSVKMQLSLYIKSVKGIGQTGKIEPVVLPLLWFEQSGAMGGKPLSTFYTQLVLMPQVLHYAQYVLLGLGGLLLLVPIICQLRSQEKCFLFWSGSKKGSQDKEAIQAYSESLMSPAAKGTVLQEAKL

Structure (SMILES)	inhibition
O=C(CCc1nc2ccccc2c(=O)[nH]1)Nc1ccc(Cl)c(Cl)c1	inactive: -11.8%
COc1ccc(NC(=O)CCOc2ccccc2)cc1	inactive: 7.02%
Cc1ccc(C(=O)Nc2ccc(C(=O)N/N=C/c3ccccn3)cc2)cc1	active: 76%
O=C(N/N=C/c1ccncc1)c1ccc(COc2cccc3cccnc23)cc1	inconclusive: 71%
COc1ccc(OC)c(NC(=O)c2cc(S(=O)(=O)NCc3ccco3)ccc2F)c1	active: 82.9%
CC(=O)Nc1ccc(NC(=O)C(C)N(C)CC(=O)Nc2ccccc2Br)cc1 (centres undefined)	inactive: -9.49%
O=c1ccc2cc3c([nH]c4ccc(Br)cc43)oc-2c1O	active: 87.8%
Cc1ccc(NC2CC(=O)N(c3cccc([N+](=O)[O-])c3)C2=O)cc1 (centres undefined)	active: 82.5%
Cc1ccc(NC(=S)c2nc3ccccc3[nH]2)cc1	active: 77.3%
CCN(CC)CCP(=O)(c1ccccc1)c1ccccc1	inconclusive: 70.8%
COc1ccc(-c2nc(C#N)c(NCCc3ccccc3)o2)cc1OC	inconclusive: 72.3%
CC(=O)c1ccc(NC(=O)c2ccc3c(Cl)c4c(nc3c2)CCCC4)cc1	inconclusive: 70.6%
CC(C)(C)C1CCC(=NNC(=O)C(=O)NCc2cccnc2)CC1 (centres undefined)	inactive: -19.3%
O=C1NC(=O)C(=Cc2ccc(Cl)cc2Cl)S1	inactive: -2.21%
CC(=O)N1CCN(C(=S)NCc2ccccc2)CC1	inactive: -8.64%
CC(=O)Nc1ccc2c(c1)-c1ccc(F)cc1C2	inactive: -6.06%
COc1ccc(-c2oc(/N=C/N3CCCC3)c(C#N)c2-c2ccc(OC)cc2)cc1	inconclusive: 74.5%
CCOC(=O)c1c(NC(=O)CSc2nc3ccccc3s2)sc(C(C)=O)c1C	inconclusive: 79.1%
COc1ccc(C(=O)NC(=S)Nc2ccccc2N2CCN(S(C)(=O)=O)CC2)cc1OC	active: 74.4%
CCN(CC1COc2ccccc2O1)C(=S)NC1CC2CCC1C2 (centres undefined)	inactive: -0.727%
COc1ccc(-c2csc(NC(=O)CN3C(=O)C4CCCCC4C3=O)n2)c(OC)c1 (centres undefined)	inconclusive: 70.1%
Cc1cc(C(=O)N/N=C/c2cc(Br)cc(Br)c2OC(=O)c2cccc(F)c2)n[nH]1	active: 122%
CNC(=S)N(CCc1c(C)[nH]c2ccccc12)Cc1ccco1	inconclusive: 70.8%
Cc1nn(Cc2ccccc2)c(C)c1/C=N/NC(=O)c1cccnc1	inactive: 4.85%
Cc1cccc(/C=N/N2CCN(c3ccccc3)CC2)c1	inactive: -28.4%
Cc1ccc(C(=O)NNC(=O)c2ccccc2O)cc1S(=O)(=O)N1CCCCC1	active: 78.2%
Cc1c(C(=O)OCCOC(C)C)[nH]c2c1C(=O)CC(c1ccco1)C2 (centres undefined)	active: 88.9%

Structure (SMILES)	inhibition
CC(=O)NC(NC(=S)Nc1ccc(N=Nc2ccccc2C)cc1C)C(Cl)(Cl)Cl (centres undefined)	inconclusive: 73.9%
Cc1[nH]c(=O)[nH]c1C(=O)CCCCC(=O)OCC(=O)Nc1ccccn1	inactive: -13.9%
COc1ccccc1N1CCN(C(=O)CCCn2nc(C)c([N+](=O)[O-])c2C)CC1	inconclusive: 71.9%
CN1C(=O)/C(=C/c2ccccc2F)Sc2ccc(C(=O)NCC3CCCO3)cc21 (centres undefined)	inconclusive: 70.1%
O=C(O)c1ccc(/C=C2\SC(=Nc3ccccc3)N(c3ccccc3)C2=O)cc1	inactive: -5.89%
CCC1CCCCN1S(=O)(=O)c1ccc(C(=O)Nc2nnc(-c3cccs3)o2)cc1 (centres undefined)	inactive: 16.1%
Cc1ccc2nc(-c3cccc(-c4cccc(Cl)c4)c3)c(NCc3ccccc3)n2c1	inconclusive: 70.1%
O=C(COc1ccccc1)Nc1ccccc1N1CCN(c2ccc(F)cc2)CC1	active: 80%
COc1ccc(OC)c(NC(=O)C(=O)N/N=C/c2ccccc2[N+](=O)[O-])c1	active: 80.6%
CCOC(=O)C1CCN(C(=O)c2ccc(OCC(=O)Nc3cccc(C(F)(F)F)c3)c(OC)c2)CC1	inconclusive: 70.5%
CCCCCC(=O)N1CC2(CC(c3cccc(NC(=O)COc4ccc(Cl)cc4)c3)=NO2)C[C@@H]1C(N)=O (some centres undefined)	inconclusive: 71.5%
CS(=O)(=O)N(Cc1ccccc1)c1ccc(C(=O)N2CCN(c3cccc(Cl)c3)CC2)cc1	inactive: 48.4%
CCN(CC(=O)NCc1ccc(F)cc1)C(=O)/C=C/c1ccc(S(=O)(=O)N(CC)CC)cc1	active: 75.7%
Cn1nc(C(=O)Nc2cc(Cl)ccc2N2CCCC2)c2ccccc2c1=O	active: 92.7%
CC(=O)Nc1cccc(NC(=O)c2ccc3c(c2)CCN3S(=O)(=O)c2ccccc2)c1	inconclusive: 72%
C/C(CCc1oc2c(Br)cc(Br)cc2c1-c1ccc(C)o1)=N\O	active: 77.8%
COc1cccc(-c2c(C(=O)N/N=C/c3sccc3C)nnn2-c2nonc2N)c1	inconclusive: 70.3%
C#CCOCCOCCOCCNc1nc(N2CCOCC2)nc(N2CCN(C(=O)CCCCCCCCCCNC(=O)[C@H]([C@@H](C)CC)n3cc(CCCCN=C(N)N)nn3)CC2)n1	inconclusive: 70.7%
COc1ccc(Cl)cc1-c1nc(-c2ccc(NC(=O)c3ccncc3)cc2)no1	inconclusive: 72.7%
Cc1ccccc1-c1cc(C(=O)Nc2nc3c(s2)CCCC3)c2ccccc2n1	inconclusive: 73.8%
CC(C)(C)N1C(=O)[C@H]2[C@@H](c3ccc(Br)cc3)N3C(=O)N(c4cccc(F)c4)C(=O)[C@@]3(C)[C@H]2C1=O	inactive: -3.43%
CCOc1ccccc1-n1cnc2cc(C(=O)NCc3ccco3)ccc21	inconclusive: 70.7%
Cc1ccc(Nc2c([N+](=O)[O-])ccc3c2=NC2(CCCCC2)N=3)cc1	inconclusive: 70.1%
Cc1ccc(S(=O)(=O)NCC(=O)OCC(=O)N2CCN(C(=O)c3ccco3)CC2)cc1C	inactive: -3.6%
Cc1nc(NC(=O)c2ccco2)sc1-c1csc(Nc2ccc(Cl)cc2Cl)n1	inconclusive: 73.3%
Cn1cccc1-c1nc2ccc(NC(=O)c3ccc([N+](=O)[O-])cc3)cc2[nH]1	active: 86.9%
COc1ccc(NC(C)=O)cc1NC(=O)c1ccc2ccccc2c1	inactive: 21%
